# From PubChem BioAssay AID463173 (ICCB-Longwood Screening Facility, Harvard Medical School, 2010)
# The whole screen tested about 52,000 compounds, of which about 1,700 (3.3%) were called active. Cut-off read from the data, not from the text of the source: active = survival mostly below about 52% (no sharp cut-off); inactive = mostly above about 56%. This is one part of the list.
# Test system: Wild type
# Assay: S. aureus survival, RN4220 and DeltatarO strains – OD600, teichoic acid synthesis inhibitors, primary screen (AID 463173)
# Settings: S. aureus RN4220 wild type/DeltatarO growth, OD600, 18 h, stronger effect = lower value, screened at 18.75 µg/mL (by protocol)
row,SMILES,survival
1,c1cncc(-c2noc(C3CCCCC3)n2)c1,inactive: 103%
2,CCOC(=O)N1CCC2(CC1)OC(=O)C(C)=C2C(=O)NCc1ccc(C)cc1,inactive: 65%
3,COC(=O)Cn1ccc2cc(S(=O)(=O)N3CCCCCC3)ccc21,inactive: 75%
4,Clc1ccccc1CNC12CN3CN(CN(C3)C1)C2,inactive: 115%
5,CCC1CCc2nc3sc(C(=O)Nc4ccc(C)cc4C)c(N)c3cc2C1 (stereo unspecified),inactive: 79%
6,Cn1c(SCC(N)=O)nnc1-c1ccc(S(=O)(=O)N2CCCC2)cc1,inactive: 108%
7,O=C(NCCc1csc(-c2cccc(F)c2)n1)c1ccccc1C(F)(F)F,inactive: 70%
8,CCN(C(=O)CN1C(=O)COc2ccc(S(=O)(=O)N3CCOCC3)cc21)c1cccc(C)c1,inactive: 100%
9,O=C(c1cn(-c2ccccc2)nc1-c1cccnc1)N1CCCCC1,inactive: 107%
10,Cc1nn(CC(=O)N2CCC(C)CC2)c(=O)c2cc3occc3n12,inactive: 81%
11,O=C(NCC1CCCO1)c1ccc(S(=O)(=O)N2CCCCC2)cc1 (stereo unspecified),inactive: 108%
12,Cc1cccc(-c2nc(CN3CCCC(C(=O)NCc4ccc(Cl)cc4)C3)c(C)o2)c1 (stereo unspecified),active: 2%
13,COC(=O)c1ccc(NC(=O)Cn2c(-c3nonc3N)nc3ccccc32)cc1,inactive: 157%
14,CCCc1cnc2c(c1SCC(=O)Nc1c(C)cc(C)cc1C)c(=O)n(C)c(=O)n2C,inactive: 87%
15,CCc1nn(-c2ccccc2)c2nc(-c3ccc(O)cc3)c3cc(OC)c(OC)cc3c12,inactive: 81%
16,COc1cccc(NC(=O)N(Cc2c[nH]c3ccccc23)C2CCCCCC2)c1,inactive: 63%
17,CN(C(=O)c1cc2c(Cl)nc3ccccc3c2s1)c1cccc(C(F)(F)F)c1,inactive: 80%
18,CCn1c(C(=O)Nc2c(C)cccc2C)cc2sc(Cl)cc21,inactive: 75%
19,COC(=O)C(NC(=O)c1ccccc1)=C1C=C(C)OC(C)=C1,inactive: 108%
20,O=C(Cn1nc(-c2ccccc2)c2c(c1=O)CCCC2)Nc1ccc(F)c(Cl)c1,inactive: 44%
21,COc1cccc(-c2noc(COc3ccc(C(C)(C)C)cc3)n2)c1,inactive: 86%
22,Cc1ccccc1NS(=O)(=O)c1ccc2[nH]cc(C(=O)NC3CCCCC3)c(=O)c2c1,inactive: 80%
23,CC(C)/C=N/NC(=O)c1ccc2c(c1)NC(=O)C(C)(C)O2,inactive: 108%
24,CCn1c(=O)c2cc(C(=O)NC3CCC(C)CC3)sc2c2ccccc21 (stereo unspecified),inactive: 92%
25,CC1(C)c2ssc(=S)c2-c2ccccc2N1C(=O)CSC#N,inactive: 98%
26,Cc1ccc(NC(=O)c2oc3ccc(S(=O)(=O)N4CCCCCC4)cc3c2C)c(C)c1,inactive: 146%
